Out of some 360,000 compounds screened, about 6,000 (1.7%) were called active. Inconclusive means that the source gave no clear call. Such entries were picked first, then a sample of the others. Calls follow the shape of the dose curve; as a rule, active = well fitted cell-killing curve with a large enough effect; inconclusive = small, poorly fitted or top-dose-only effect, or effect the other way; inactive = flat fitted curve, though single readings scatter. Potencies of inconclusive entries are left out as doubtful fits.
Assay: qHTS for induction of synthetic lethality in tumor cells producing 2HG: qHTS for the HT-1080-NT fibrosarcoma cell line;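 also: NT is the 2HG producing partner of a matched IDH1 knockdown line; nearly all actives have a fitted effect of over 55% in size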;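 as to activity, negative = less viability: 0% = DMSO-treated cells and -100% = media-only wells without cells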
Conditions: HT-1080-NT fibrosarcoma viability, CellTiter-Glo ATP luminescence, 48 h; activity, negative = less viability: at 46.1 µM (top of the series) unless noted
How it was run: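 Compounds were tested in concentration-response format on HT-1080-NT cells for 48 hours at 37 degrees C. Cell viability came from CellTiter-Glo luminescence; curves were classified by r2, response magnitude and activity.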
Potency is read from the fitted curve at half-maximal effect; tags tell the direction and shape of the fitted curve.

Compound | Potency | activity, negative = less viability
COc1ccnc(NCc2ccc(Cl)cc2)c1C#N | inconclusive [cytotoxic, single point] | –
CCN1C[C@@H]2[C@@H]3C(=O)N(C)C(=O)[C@@H]3[C@](CC)(C1=O)N2C(=O)c1ccc(C)cc1 | – | inactive: 1.62%
CCCCNc1c(-c2ccc(OC)c(Sc3ccc(OC)cc3)c2)nc2ccc(Cl)cn12 | inconclusive [cytotoxic, single point] | –
C=CCn1c(Sc2ncc([N+](=O)[O-])s2)n[nH]c1=O | active: 5.8 µM | –
CC(=O)c1c(C)[nH]c(C(=O)NC2CCSc3ccccc32)c1C (stereo not given) | – | inactive: -7.83%
CC(=O)c1ccccc1NC(=O)COC(=O)/C=C/c1ccc(OC(F)F)cc1 | – | inactive: -1.66%
O=C(Nc1ccc(-c2nc3ccccc3[nH]2)cc1)c1ccco1 | inconclusive [cytotoxic, single point] | –
CC(C)CN(CC(C)C)CC(O)CN(c1ccccc1)S(=O)(=O)c1ccccc1[N+](=O)[O-] (stereo not given) | inconclusive [cytotoxic, single point] | –
CC(=O)Nc1cccc(-c2ccnc3c2CC(C(=O)NCc2cccc(Cl)c2)O3)c1 (stereo not given) | inconclusive [cytotoxic, partial curve] | –
COc1ccc(C(C(=O)NC(C)C)N(C(=O)CCC(=O)Nc2nccs2)c2ccccc2F)cc1 (stereo not given) | – | inactive: -6.66%
O=C1NCCN1CCNc1nc(NCc2ccccc2)nc2ccsc12 | – | inactive: 27%
COc1ccc(-c2c([C@H]3[C@H]4C=CC[C@@H](C)[C@@H]4C(=O)N3Cc3ccccc3)ccc3ccccc23)cc1OC | inconclusive [cytotoxic, single point] | –
O=C(Nc1ccccc1)/C(=C\c1ccccc1)NC(=O)c1ccco1 | inconclusive [cytotoxic, single point] | –
COc1ccc([N+](=O)[O-])c(S(=O)(=O)c2ccccc2)n1 | active: 20.6 µM | –
CCN(CC)CCOC(=O)c1ccc(N/C=C(/C#N)c2nc(-c3ccc(OC)c(OC)c3)cs2)cc1 | active: 23.1 µM | –
CCN(CC)CCSc1nc2ccccc2c(=S)n1-c1ccccc1 | inconclusive [cytotoxic, single point] | –
CN(C)c1ccc(/C=C2\SC(=S)N(Nc3ncc(C(F)(F)F)cc3Cl)C2=O)cc1 | inconclusive [cytotoxic, single point] | –
O=C(CSc1ccc(Br)cc1)NCC(c1ccco1)N1CCCCC1 (stereo not given) | – | inactive: -2.07%
Cc1ccc(NC(=O)c2ccc(S(=O)(=O)N3CCCCCC3)cc2)nc1 | inconclusive [cytotoxic, single point] | –
C#CCN(C[C@@H]1[C@@H](OC(=O)NCC2CCCCC2)[C@@H](OC(=O)NCC2CCCCC2)Cn2c(=O)ccc(=O)n21)S(=O)(=O)c1ccc(C)cc1 | active: 5.17 µM | –
NNC(=O)CSc1nc(-c2ccccc2)cn1-c1ccccc1 | – | inactive: -21.6%
COc1ccc2cc(S(=O)(=O)c3ccccc3)c(=O)oc2c1 | inconclusive [cytotoxic, single point] | –
O=C(Nc1ccccc1)c1cc2ccccc2s1 | inconclusive [cytotoxic, partial curve, poor fit] | –
CC1(C)Cc2c(sc3ncnc(NNC(=S)NCc4ccccc4)c23)CO1 | inconclusive [cytotoxic, full curve] | –

Compound | Potency | activity, negative = less viability
O=c1[nH]c(C2CCN(S(=O)(=O)c3cccc(C(F)(F)F)c3)CC2)nc2c1nnn2Cc1cccc(F)c1 | active: 20.6 µM | –
C1=C(CCNc2ncnc3c2[nH]c2ccccc23)CCCC1 | active: 25.9 µM | –
CCCN1CCN(CC(=O)Nc2cc(OCC)ccc2OCC)CC1 | – | inactive: -3.5%
Cc1cc(C)nc(NC(=O)c2ccc([N+](=O)[O-])o2)n1 | – | inactive: -2.73%
O=c1[nH]c(=O)n(C2OC(CO)C(O)C2O)c2c1CCCC2 (stereo not given) | – | inactive: 29.3%
Brc1cccc(-c2nc3c4ccccc4ccn3c2Cc2ccsc2)c1 | – | inactive: -10.9%
Oc1ccc(Br)c(CN2CCN(c3ncc(Cc4ccccc4)cn3)CC2)c1 | inconclusive [cytotoxic, single point] | –
Nc1nc(N)c(N=O)c(Nc2ccc(Cl)c(Cl)c2)n1 | inconclusive [cytotoxic, partial curve] | –
Cc1cc(C)n(-c2nc(Nc3ccccc3)nc(-n3nc(C)cc3C)n2)n1 | – | inactive: 9.73%
COc1ccc(OC)c(/C=C/C(=O)OCC(=O)Nc2cccc(C(C)=O)c2)c1 | – | inactive: 17%
CCOC(=O)Cn1c(=O)c(F)cn(Cc2ccc(OC)c([N+](=O)[O-])c2)c1=O | inconclusive [cytotoxic, single point] | –
C[C@H](CO)N1C[C@H](C)[C@@H](CN(C)C(=O)NC2CCCCC2)Oc2c(NC(=O)Cc3ccccc3)cccc2C1=O | inconclusive [rising, single point] | –
O=C1C2C3C=CC(C3=C(c3ccccc3)c3ccccc3)C2C(=O)N1Cc1ccccc1 (stereo not given) | – | inactive: -14.4%
COc1ccc(-c2csc(NC3OC(=O)c4c3ccc(OC)c4OC)n2)cc1OC (stereo not given) | active: 2.06 µM | –
COc1cc2c(cc1C(F)(F)F)N(C(=O)Nc1cc(F)cc(-c3cccnc3)c1)CC2 | active: 11.2 µM | –
Clc1ccc(CN2C3=NCCCN3c3ccccc32)cc1 | inconclusive [cytotoxic, single point] | –
NS(=O)(=O)c1ccc(NC(=S)Nc2ccn(Cc3cccc4ccccc34)n2)cc1 | inconclusive [cytotoxic, single point] | –
CCC(Sc1nc(C)cc(C)n1)C(=O)NC1=NN=C(c2ccc(C)cc2)CS1 (stereo not given) | inconclusive [cytotoxic, single point] | –
Cc1ncc(CN2CCCC(C(=O)Nc3ccc(-c4cccc(F)c4)cc3)C2)n1C (stereo not given) | inconclusive [cytotoxic, partial curve] | –
Cc1ccc(NC(=O)c2cc(-c3ccco3)nc3ccccc23)cc1S(=O)(=O)N1CCOCC1 | – | inactive: -19.5%
CC(C)NC(=O)C1(C)CCCN1C(=O)c1ccccc1Br (stereo not given) | inconclusive [rising, single point] | –
Cc1ccccc1C(=O)N1CCN(c2ccc(NC(=S)NC(=O)c3ccco3)cc2)CC1 | inconclusive [cytotoxic, single point] | –
O=C(CN(C(=O)CCC(=O)Nc1nccs1)c1cccc(F)c1)NCc1ccccc1 | inconclusive [cytotoxic, single point] | –
CC(=O)Nc1ccc(S(=O)(=O)Nc2ccc(Cc3ccncc3)cc2)cc1 | inconclusive [cytotoxic, single point] | –

Compound | Potency | activity, negative = less viability
Cc1cccc(/C=C2\Oc3cc(OS(C)(=O)=O)ccc3C2=O)c1 | inconclusive [cytotoxic, single point] | –
COc1ccc(CCN2C(=O)c3ccccc3NC2c2cc(Cl)c(O)c(OC)c2)cc1 (stereo not given) | active: 1.64 µM | –
CCN(CC)CCCN(C(=O)c1ccc(F)cc1)c1nc(-c2ccc(OC)cc2)cs1 | inconclusive [cytotoxic, single point] | –
CSCCC(NC(=O)c1ccccc1Br)C(=O)NCC(c1ccco1)N1CCCCC1 (stereo not given) | – | inactive: 2.07%
O=C(Oc1ccc(Cl)c2cccnc12)c1cccnc1 | inconclusive [cytotoxic, single point] | –
Cc1ccc(N2C(=O)c3cccc4c(N5CCN(C)CC5)ccc(c34)C2=O)c2cccnc12 | inconclusive [cytotoxic, single point] | –
Cc1cccc(C)c1-n1nnnc1C(C1CC1)N1CCN(C/C=C/c2ccccc2)CC1 (stereo not given) | inconclusive [cytotoxic, single point] | –
CC(C)[C@H](NC(=O)Cc1ccccc1)C(=O)OCc1cc(=O)n2c(n1)sc1ccccc12 | – | inactive: -10.8%
COc1cc2c(cc1OC)C(c1ccc3c(c1)OCO3)CC(=O)N2 (stereo not given) | inconclusive [cytotoxic, partial curve] | –
Cc1cc(C(=O)CSc2nnnn2C)c(C)n1-c1ccc2c(c1)OCCO2 | – | inactive: 17.2%
CCCCNC(=O)CSc1nc2ccc(N3CCOCC3)cc2c(=O)n1CCc1ccccc1 | – | inactive: 1.22%
Cc1cccc(C)c1NC(=O)CNC(=O)c1c(C)nn(-c2ccccc2)c1Cl | – | inactive: 4.17%
COc1cc(N=c2ssnc2Cl)c(OC)cc1Cl | inconclusive [cytotoxic, partial curve] | –
CC(C)C1CC(CCNCc2ccc3c(c2)OCO3)(c2ccccc2)CCO1 (stereo not given) | active: 18.4 µM | –
COc1ccc(OCc2cc(-c3ccc(Cl)cc3)no2)cc1 | inconclusive [rising, single point] | –
COc1ccc(-n2nnc3c(SCc4ccccc4)ncnc32)cc1 | inconclusive [rising, partial curve] | –
CCCCn1c(SCC(=O)NCc2ccco2)nc2c(sc3ccccc32)c1=O | – | inconclusive: -19.3% [cytotoxic]
CCn1c(SCC(=O)Nc2ccc(C(=O)OC)cc2)nc2cccnc21 | inconclusive [cytotoxic, single point] | –
Cn1c(N)c(C(=O)COC(=O)C2(c3ccc(Cl)cc3)CCCC2)c(=O)n(C)c1=O | inconclusive [cytotoxic, single point] | –
CC(=O)c1sc(NC(=O)CN2C(=O)C3CC=CCC3C2=O)nc1-c1ccccc1 (stereo not given) | – | inconclusive: 34.6%
Cc1nn(Cc2ccccc2Cl)c(C)c1C(=O)NCCN1C(=O)S/C(=C\c2ccccc2)C1=O | inconclusive [cytotoxic, single point] | –
FC(F)(F)c1nnc(Nc2ccc(Cl)cc2)s1 | inconclusive [cytotoxic, single point] | –
